According to the supplement of paper PMC3334620:
Whole data set: some 33,000 sequences, median “E-score (-0.5 to 0.5)” near -0.013, cut for the highest 2% near 0.3. Some of the results follow.

These sequences were tested against T1, Msn1 (UniProt P22148) (assay: PBM E-score (8-mer binding enrichment) (E-score (-0.5 to 0.5)); higher = stronger / more preferred TF binding; most listed sequences are background and not binding sites). Details: protein concentration: 200 nM; construct: GST-full length.
T1 sequence: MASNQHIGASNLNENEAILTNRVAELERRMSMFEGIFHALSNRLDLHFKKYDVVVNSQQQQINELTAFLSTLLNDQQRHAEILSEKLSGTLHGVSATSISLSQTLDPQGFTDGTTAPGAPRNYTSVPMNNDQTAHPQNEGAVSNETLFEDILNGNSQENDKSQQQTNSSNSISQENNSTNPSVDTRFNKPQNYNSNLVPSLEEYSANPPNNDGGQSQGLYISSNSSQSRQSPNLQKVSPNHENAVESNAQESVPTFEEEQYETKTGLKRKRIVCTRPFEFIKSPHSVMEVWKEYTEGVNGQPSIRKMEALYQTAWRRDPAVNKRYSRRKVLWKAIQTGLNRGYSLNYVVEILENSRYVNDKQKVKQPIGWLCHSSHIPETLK
Procedure, shortened: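 GST-tagged yeast TFs (full-length or DNA-binding domain) were made by PURExpress in vitro transcription/translation and applied at about 100-200 nM to universal all-10-mer Agilent arrays. The arrays were made double-stranded by primer extension, on fresh or once-stripped slides. Bound protein was detected with fluorescent anti-GST, and scans were normalised with masliner. Each ungapped eight-base word, pooled with its reverse complement, received an E-score (modified Wilcoxon-Mann-Whitney statistic) from the Universal PBM Analysis Suite.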
In the case of CCTGCTCC, the “PBM E-score” value is reported as -0.0282. AGTTTGGC was tested, and the “PBM E-score” value was 0.0323. With TCAAGACA the “PBM E-score” value was 0.247. CCAAGTCA was tested, and the “PBM E-score” value was -0.179. AATAAAAG was tested, and the “PBM E-score” value was 0.106. GGGACTCA was tested, and the “PBM E-score” value was 0.0181. For TCGCACGA, the “PBM E-score” value was -0.107. In the case of ACCAGATG, the “PBM E-score” value is reported as -0.028. CCAGACCC was tested, and the “PBM E-score” value was -0.308. In the case of CAGATTCG, the “PBM E-score” value is reported as -0.0284. For CGGGCCCC, the “PBM E-score” value was -0.295. AGGCGCCA was tested, and the “PBM E-score” value was -0.121. In the case of GGTGACAC, the “PBM E-score” value is reported as -0.0303. CCGAGGGA was tested, and the “PBM E-score” value was -0.228. For GTAATTGA, the “PBM E-score” value was 0.0433. With GACCGGGA the “PBM E-score” value was -0.13. In the case of ATGGCAAT, the “PBM E-score” value is reported as 0.0456. For CTAGCTAC, the “PBM E-score” value was -0.156. In the case of GATTTACC, the “PBM E-score” value is reported as 0.147. CAAATTCA was tested, and the “PBM E-score” value was -0.081. In the case of CCACCCGC, the “PBM E-score” value is reported as -0.282. For ACACCACT, the “PBM E-score” value was 0.0915. With AACAAGCT the “PBM E-score” value was -0.0167. GTTTGGGA was tested, and the “PBM E-score” value was 0.185. For CATCCCAC, the “PBM E-score” value was -0.217. In the case of GATTCAAA, the “PBM E-score” value is reported as 0.0389. With ACGCCCCG the “PBM E-score” value was -0.14. With CCTGACAC the “PBM E-score” value was 0.0219. In the case of CGGCGCCA, the “PBM E-score” value is reported as -0.0198. With CAGAGCCG the “PBM E-score” value was -0.0822. ACTAATGG was tested, and the “PBM E-score” value was 0.0668. With GATAGTGC the “PBM E-score” value was -0.0686. With AAGAGGAG the “PBM E-score” value was -0.147. ATACCTAG was tested, and the “PBM E-score” value was -0.0479. With GAGTTATC the “PBM E-score” value was 0.126. CACCTTTA was tested, and the “PBM E-score” value was -0.0449. AGTGTGTA was tested, and the “PBM E-score” value was -0.0905. In the case of AGTACAGA, the “PBM E-score” value is reported as 0.144. For TACCGGGA, the “PBM E-score” value was 0.148. With AACATTAA the “PBM E-score” value was 0.158. In the case of ACACTCGT, the “PBM E-score” value is reported as -0.0408. In the case of CTCATCTA, the “PBM E-score” value is reported as -0.0905. With CGAATCAG the “PBM E-score” value was -0.0431. In the case of ACCGCATC, the “PBM E-score” value is reported as -0.105. CGCGATTC was tested, and the “PBM E-score” value was 0.0594. In the case of AGATCACC, the “PBM E-score” value is reported as -0.0232. For AGCACTGG, the “PBM E-score” value was -0.216. TACTACTA was tested, and the “PBM E-score” value was 0.243. With CCACTGAG the “PBM E-score” value was -0.249. In the case of GATCCAAA, the “PBM E-score” value is reported as 0.0844. In the case of AGCTCACC, the “PBM E-score” value is reported as -0.141. With AGTCCGAG the “PBM E-score” value was 0.301. For ACAACCAT, the “PBM E-score” value was 0.233. For ACCCTTAT, the “PBM E-score” value was -0.0336. For CCCCCGGA, the “PBM E-score” value was -0.386. For AATCGCGC, the “PBM E-score” value was 0.0361. For AAAATTCG, the “PBM E-score” value was 0.232. For GAAGCAAC, the “PBM E-score” value was -0.0717. With CGCGGTGA the “PBM E-score” value was -0.0343. With AAAACATC the “PBM E-score” value was 0.131. In the case of CAACAGAG, the “PBM E-score” value is reported as 0.0497. With AACGCGTC the “PBM E-score” value was 0.154. In the case of GCGAAATA, the “PBM E-score” value is reported as 0.00476. With CCATTCCA the “PBM E-score” value was -0.00223. AGGAGGGC was tested, and the “PBM E-score” value was -0.318. For CTGGGAGC, the “PBM E-score” value was -0.181. With CGGAGACA the “PBM E-score” value was 0.27. In the case of CCATACCC, the “PBM E-score” value is reported as -0.252. With GGCACCGA the “PBM E-score” value was -0.0783. For CTGTGGGC, the “PBM E-score” value was -0.0947. For AAACTTCC, the “PBM E-score” value was -0.0758. In the case of GATATACC, the “PBM E-score” value is reported as 0.0797. TAGGAACA was tested, and the “PBM E-score” value was 0.0697. For GTTCCCCA, the “PBM E-score” value was -0.0857. For AACGCGTT, the “PBM E-score” value was 0.0117. With GATGTGAA the “PBM E-score” value was 0.00964. For TAAGCTCA, the “PBM E-score” value was -0.0986. For AAGCTCAG, the “PBM E-score” value was 0.00757. AAACGAAA was tested, and the “PBM E-score” value was 0.25. With CGTTTGAG the “PBM E-score” value was 0.0785. In the case of CCACACGA, the “PBM E-score” value is reported as 0.00165. For AGATATCA, the “PBM E-score” value was 0.0525. For TGGTATAA, the “PBM E-score” value was 0.152. In the case of GAACTTCC, the “PBM E-score” value is reported as -0.0268. With CATAGCGC the “PBM E-score” value was 0.0322. CATAACGC was tested, and the “PBM E-score” value was 0.107. In the case of ACTAACCC, the “PBM E-score” value is reported as -0.0861. GACGGAGA was tested, and the “PBM E-score” value was -0.0925. For AGTCATCG, the “PBM E-score” value was 0.0215. For TCGTGTAA, the “PBM E-score” value was 0.0713. With CTGAGAAG the “PBM E-score” value was -0.24. ATTGCCCA was tested, and the “PBM E-score” value was -0.0823. With TGACGCCA the “PBM E-score” value was -0.115. For CCTACACC, the “PBM E-score” value was -0.158. In the case of GCCTTAGA, the “PBM E-score” value is reported as -0.00676. In the case of CATATGGA, the “PBM E-score” value is reported as 0.14. For GAGCCGAC, the “PBM E-score” value was -0.141. For CGCCTATA, the “PBM E-score” value was 0.035. In the case of AAATTAAT, the “PBM E-score” value is reported as 0.199. AGCTCTGC was tested, and the “PBM E-score” value was -0.348. With TGTACAAA the “PBM E-score” value was 0.392. AGAGTTAG was tested, and the “PBM E-score” value was -0.0948. With CTGTATAA the “PBM E-score” value was 0.0876. With AGCTTGCG the “PBM E-score” value was -0.111. In the case of AATGTAGA, the “PBM E-score” value is reported as -0.00408. ATTCATAG was tested, and the “PBM E-score” value was 0.0666. With CAATTGGC the “PBM E-score” value was 0.124. ACCGAACA was tested, and the “PBM E-score” value was 0.109. In the case of CCGGAGCA, the “PBM E-score” value is reported as 0.0316. In the case of GCTTGTAC, the “PBM E-score” value is reported as 0.267. In the case of TCCATTAA, the “PBM E-score” value is reported as 0.176. With GCGCCAGA the “PBM E-score” value was -0.123. In the case of GTATCCAC, the “PBM E-score” value is reported as -0.0737. In the case of TTAGCAAA, the “PBM E-score” value is reported as 0.0995. With AAAGTGCG the “PBM E-score” value was 0.073. In the case of GACATAGA, the “PBM E-score” value is reported as 0.36. TACCGCCA was tested, and the “PBM E-score” value was 0.011. In the case of CTCAAAAG, the “PBM E-score” value is reported as -0.0203. In the case of CGTATGCC, the “PBM E-score” value is reported as -0.0374. ATAGCGCA was tested, and the “PBM E-score” value was -0.137. With CGTGTATA the “PBM E-score” value was -0.112. ACAATCAT was tested, and the “PBM E-score” value was 0.0881. With ATGTCTTG the “PBM E-score” value was 0.35. In the case of AAGCGAAG, the “PBM E-score” value is reported as -0.00401. For AGTGAATG, the “PBM E-score” value was 0.00927. For TACGATCA, the “PBM E-score” value was -0.0427. In the case of GCGCAAGA, the “PBM E-score” value is reported as 0.181. With GACTCTTA the “PBM E-score” value was 0.102. For CCCTGAAC, the “PBM E-score” value was 0.0866. With CTCTGAGA the “PBM E-score” value was -0.0856. For CATCCAGC, the “PBM E-score” value was -0.172. CCATGGCC was tested, and the “PBM E-score” value was -0.221. With AGGCGTCC the “PBM E-score” value was -0.0833. GGCGGAAC was tested, and the “PBM E-score” value was -0.0382. For GAGCTAGA, the “PBM E-score” value was -0.214. For AACAAAAG, the “PBM E-score” value was 0.101. AGACCTAT was tested, and the “PBM E-score” value was 0.0787. With CCTATTGA the “PBM E-score” value was 0.0297. For AAGCCCAT, the “PBM E-score” value was -0.203. In the case of AAGGCCAA, the “PBM E-score” value is reported as -0.2. With AACATCAT the “PBM E-score” value was -0.0587. In the case of CTGCCTTC, the “PBM E-score” value is reported as -0.116. For GCTCACCC, the “PBM E-score” value was -0.203. For CTTACTAA, the “PBM E-score” value was 0.0341. With GATGAGAC the “PBM E-score” value was 0.216. In the case of CGGGTCAG, the “PBM E-score” value is reported as 0.0673. With CGCGAAAG the “PBM E-score” value was -0.0559. For CAAAGCTC, the “PBM E-score” value was -0.224. For CCAAACAG, the “PBM E-score” value was -0.0873. For GAGTAGAC, the “PBM E-score” value was -0.0442. With GAGCGCTA the “PBM E-score” value was -0.147. AGTGACAT was tested, and the “PBM E-score” value was 0.3. With GCCAGGAA the “PBM E-score” value was -0.00772. AACGTAGG was tested, and the “PBM E-score” value was -0.224. For AACACGTA, the “PBM E-score” value was 0.0503. In the case of GACCGTCC, the “PBM E-score” value is reported as -0.231. For CCATAGAC, the “PBM E-score” value was 0.037. With GTTATCCA the “PBM E-score” value was -0.0172. AATTCATA was tested, and the “PBM E-score” value was -0.0103. CCAGTTAA was tested, and the “PBM E-score” value was 0.0896. CTGTTTAC was tested, and the “PBM E-score” value was 0.0108. ACTCTGCC was tested, and the “PBM E-score” value was -0.0152. ACCGAGAA was tested, and the “PBM E-score” value was 0.149. With CTCCTAAC the “PBM E-score” value was -0.278. ACGCACTG was tested, and the “PBM E-score” value was -0.121. With AAAAGACA the “PBM E-score” value was 0.342. CATGGAAA was tested, and the “PBM E-score” value was 0.197. In the case of ACAGCAGG, the “PBM E-score” value is reported as -0.0564. With AATCATCA the “PBM E-score” value was 0.0708. With CCCATTAA the “PBM E-score” value was -0.00813. With CCACGCGG the “PBM E-score” value was 0.017. In the case of GAGTGGGA, the “PBM E-score” value is reported as -0.0603.
